# The list shows a part of the results.
# B1: MpL2 (Macrolepiota procera) (protein)
# chain: MSTQVSSGQTYKITNVKAGTVIDLSGEDNKSIIGYPYHSGKNQQWTFNWTGKAWTLRSASSGSYLGIEGTPADGTRLVAVNDPFEWHIWRDEANENAFRIFVPFTNYNLRLSGYGDTTPGTPVQLWWTWEGLHQTWTIDRP
# Columns and labels:
# Experiment in all cases: glycan array binding signal (z-score within array); higher = stronger binding
# Conditions in all cases: glycan notation: IUPAC condensed, linker removed; mutation: D109R
# Gal(a1-3)Gal(b1-4)GlcNAc = target: Gal(a1-3)Gal(b1-4)GlcNAc
# Summary of the method: (§1)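 Glycan array data were curated from 3228 arrays in the Consortium for Functional Glycomics database and kept only where the protein sequence was available. Glycan names were converted to IUPAC-condensed notation, and columns mapping to the same glycan were averaged. The binding signal is a within-array Z-score, averaged across arrays of the same protein sequence at different concentrations or buffers and across linkers. Negative Z-scores can be read as non-binding.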
# [1] = target: Gal(a1-3)Gal(b1-4)GlcNAc(b1-2)Man
# Summary of the method: as §1
# [2] = target: Gal(a1-3)Gal(b1-4)GlcNAc(b1-2)Man(a1-3)[Gal(a1-3)Gal(b1-4)GlcNAc(b1-2)Man(a1-6)]Man(b1-4)GlcNAc(b1-4)GlcNAc
# Summary of the method: as §1
# [3] = target: Gal(a1-3)Gal(b1-4)GlcNAc(b1-3)GalNAc
# Summary of the method: as §1
# [4] = target: Gal(a1-3)Gal(b1-4)GlcNAc(b1-6)GalNAc
# Summary of the method: as §1
# [5] = target: Gal(a1-3)Gal(b1-4)[Fuc(a1-3)]GlcNAc
# Summary of the method: as §1
# [6] = target: Gal(a1-3)Gal(b1-4)[Fuc(a1-3)]GlcNAc(b1-2)Man(a1-3)[Gal(a1-3)Gal(b1-4)[Fuc(a1-3)]GlcNAc(b1-2)Man(a1-6)]Man(b1-4)GlcNAc(b1-4)GlcNAc
# Summary of the method: as §1
# Gal(a1-3)GalNAc = target: Gal(a1-3)GalNAc
# Summary of the method: as §1
# [7] = target: Gal(a1-3)[Gal(a1-4)]Gal(b1-4)GlcNAc
# Summary of the method: as §1
# [8] = target: Gal(a1-4)Gal(b1-3)GlcNAc(b1-2)Man(a1-3)[Gal(a1-4)Gal(b1-3)GlcNAc(b1-2)Man(a1-6)]Man(b1-4)GlcNAc(b1-4)GlcNAc
# Summary of the method: as §1
# Gal(a1-4)Gal(b1-4)Glc = target: Gal(a1-4)Gal(b1-4)Glc
# Summary of the method: as §1
# Gal(a1-4)Gal(b1-4)GlcNAc = target: Gal(a1-4)Gal(b1-4)GlcNAc
# Summary of the method: as §1
# [9] = target: Gal(a1-4)Gal(b1-4)GlcNAc(b1-2)Man(a1-3)[Gal(a1-4)Gal(b1-4)GlcNAc(b1-2)Man(a1-6)]Man(b1-4)GlcNAc(b1-4)GlcNAc
# Summary of the method: as §1
# [10] = target: Gal(a1-4)Gal(b1-4)GlcNAc(b1-3)Gal(b1-4)Glc
# Summary of the method: as §1
# Gal(a1-4)GlcNAc = target: Gal(a1-4)GlcNAc
# Summary of the method: as §1
# Gal(a1-6)Glc = target: Gal(a1-6)Glc
# Summary of the method: as §1
# Gal(b1-2)Gal = target: Gal(b1-2)Gal
# Summary of the method: as §1
# Gal(b1-3)Gal = target: Gal(b1-3)Gal
# Summary of the method: as §1
# Gal(b1-3)Gal(b1-4)GlcNAc = target: Gal(b1-3)Gal(b1-4)GlcNAc
# Summary of the method: as §1
# Gal(b1-3)GalNAc = target: Gal(b1-3)GalNAc
# Summary of the method: as §1
# [11] = target: Gal(b1-3)GalNAc(a1-3)[Fuc(a1-2)]Gal(b1-4)Glc
# Summary of the method: as §1
# [12] = target: Gal(b1-3)GalNAc(a1-3)[Fuc(a1-2)]Gal(b1-4)GlcNAc
# Summary of the method: as §1
# Gal(b1-3)GalNAc(b1-3)Gal = target: Gal(b1-3)GalNAc(b1-3)Gal
# Summary of the method: as §1
# [13] = target: Gal(b1-3)GalNAc(b1-3)Gal(a1-4)Gal(b1-4)Glc
# Summary of the method: as §1
# [14] = target: Gal(b1-3)GalNAc(b1-4)Gal(b1-4)Glc
# Summary of the method: as §1
# [15] = target: Gal(b1-3)GalNAc(b1-4)[Neu5Ac(a2-3)]Gal(b1-4)Glc
# Summary of the method: as §1
# Gal(b1-3)GlcNAc = target: Gal(b1-3)GlcNAc
# Summary of the method: as §1
# [16] = target: Gal(b1-3)GlcNAc(a1-3)Gal(b1-4)GlcNAc
# Summary of the method: as §1
# [17] = target: Gal(b1-3)GlcNAc(a1-6)Gal(b1-4)GlcNAc
# Summary of the method: as §1
# Gal(b1-3)GlcNAc(b1-2)Man = target: Gal(b1-3)GlcNAc(b1-2)Man
# Summary of the method: as §1
# [18] = target: Gal(b1-3)GlcNAc(b1-2)Man(a1-3)[Gal(b1-3)GlcNAc(b1-2)Man(a1-6)]Man(b1-4)GlcNAc(b1-4)GlcNAc
# Summary of the method: as §1
# [19] = target: Gal(b1-3)GlcNAc(b1-2)Man(a1-3)[Gal(b1-3)GlcNAc(b1-2)Man(a1-6)]Man(b1-4)GlcNAc(b1-4)[Fuc(a1-6)]GlcNAc
# Summary of the method: as §1
# [20] = target: Gal(b1-3)GlcNAc(b1-2)Man(a1-3)[GlcNAc(b1-4)][Gal(b1-3)GlcNAc(b1-2)Man(a1-6)]Man(b1-4)GlcNAc(b1-4)GlcNAc
# Summary of the method: as §1
# [21] = target: Gal(b1-3)GlcNAc(b1-2)[Gal(b1-3)GlcNAc(b1-6)]Man(a1-6)[Gal(b1-3)GlcNAc(b1-2)Man(a1-3)]Man(b1-4)GlcNAc(b1-4)GlcNAc
# Summary of the method: as §1
# [22] = target: Gal(b1-3)GlcNAc(b1-3)Gal(b1-3)GlcNAc
# Summary of the method: as §1
# [23] = target: Gal(b1-3)GlcNAc(b1-3)Gal(b1-4)Glc
# Summary of the method: as §1
# [24] = target: Gal(b1-3)GlcNAc(b1-3)Gal(b1-4)GlcNAc
# Summary of the method: as §1
# [25] = target: Gal(b1-3)GlcNAc(b1-3)Gal(b1-4)GlcNAc(b1-2)Man(a1-3)[Gal(b1-3)GlcNAc(b1-3)Gal(b1-4)GlcNAc(b1-2)Man(a1-6)]Man(b1-4)GlcNAc(b1-4)GlcNAc
# Summary of the method: as §1
# [26] = target: Gal(b1-3)GlcNAc(b1-3)Gal(b1-4)GlcNAc(b1-2)[Gal(b1-3)GlcNAc(b1-3)Gal(b1-4)GlcNAc(b1-6)]Man(a1-6)[Gal(b1-3)GlcNAc(b1-3)Gal(b1-4)GlcNAc(b1-2)Man(a1-3)]Man(b1-4)GlcNAc(b1-4)[Fuc(a1-6)]GlcNAc
# Summary of the method: as §1
# [27] = target: Gal(b1-3)GlcNAc(b1-3)Gal(b1-4)GlcNAc(b1-3)Gal(b1-4)GlcNAc(b1-2)[Gal(b1-3)GlcNAc(b1-3)Gal(b1-4)GlcNAc(b1-3)Gal(b1-4)GlcNAc(b1-6)]Man(a1-6)[Gal(b1-3)GlcNAc(b1-3)Gal(b1-4)GlcNAc(b1-3)Gal(b1-4)GlcNAc(b1-2)Man(a1-3)]Man(b1-4)GlcNAc(b1-4)[Fuc(a1-6)]GlcNAc
# Summary of the method: as §1
# [28] = target: Gal(b1-3)GlcNAc(b1-3)Gal(b1-4)GlcNAc(b1-6)[Gal(b1-3)GlcNAc(b1-3)]Gal(b1-4)Glc
# Summary of the method: as §1
# [29] = target: Gal(b1-3)GlcNAc(b1-3)Gal(b1-4)[Fuc(a1-3)]GlcNAc
# Summary of the method: as §1
# [30] = target: Gal(b1-3)GlcNAc(b1-3)Gal(b1-4)[Fuc(a1-3)]GlcNAc(b1-6)[Gal(b1-3)GlcNAc(b1-3)]Gal(b1-4)Glc
# Summary of the method: as §1
# [31] = target: Gal(b1-3)GlcNAc(b1-3)GalNAc
# Summary of the method: as §1
# [32] = target: Gal(b1-3)GlcNAc(b1-6)Gal(b1-4)GlcNAc
# Summary of the method: as §1
binder,measurement,setting,value
B1,glycan array binding signal (z-score),Gal(a1-3)Gal(b1-4)GlcNAc,-0.264
same,glycan array binding signal (z-score),[1],-0.302
same,glycan array binding signal (z-score),[2],-0.227
same,glycan array binding signal (z-score),[3],-0.265
same,glycan array binding signal (z-score),[4],-0.314
same,glycan array binding signal (z-score),[5],-0.273
same,glycan array binding signal (z-score),[6],-0.196
same,glycan array binding signal (z-score),Gal(a1-3)GalNAc,-0.244
same,glycan array binding signal (z-score),[7],-0.242
same,glycan array binding signal (z-score),[8],-0.229
same,glycan array binding signal (z-score),Gal(a1-4)Gal(b1-4)Glc,-0.249
same,glycan array binding signal (z-score),Gal(a1-4)Gal(b1-4)GlcNAc,-0.289
same,glycan array binding signal (z-score),[9],-0.118
same,glycan array binding signal (z-score),[10],-0.482
same,glycan array binding signal (z-score),Gal(a1-4)GlcNAc,-0.264
same,glycan array binding signal (z-score),Gal(a1-6)Glc,-0.267
same,glycan array binding signal (z-score),Gal(b1-2)Gal,-0.285
same,glycan array binding signal (z-score),Gal(b1-3)Gal,-0.24
same,glycan array binding signal (z-score),Gal(b1-3)Gal(b1-4)GlcNAc,-0.255
same,glycan array binding signal (z-score),Gal(b1-3)GalNAc,-0.256
same,glycan array binding signal (z-score),[11],-0.212
same,glycan array binding signal (z-score),[12],-0.201
same,glycan array binding signal (z-score),Gal(b1-3)GalNAc(b1-3)Gal,-0.266
same,glycan array binding signal (z-score),[13],-0.234
same,glycan array binding signal (z-score),[14],-0.202
same,glycan array binding signal (z-score),[15],-0.252
same,glycan array binding signal (z-score),Gal(b1-3)GlcNAc,0.061
same,glycan array binding signal (z-score),[16],1.13
same,glycan array binding signal (z-score),[17],3.81
same,glycan array binding signal (z-score),Gal(b1-3)GlcNAc(b1-2)Man,-0.13
same,glycan array binding signal (z-score),[18],2.09
same,glycan array binding signal (z-score),[19],0.858
same,glycan array binding signal (z-score),[20],2.2
same,glycan array binding signal (z-score),[21],3.46
same,glycan array binding signal (z-score),[22],0.471
same,glycan array binding signal (z-score),[23],0.863
same,glycan array binding signal (z-score),[24],0.977
same,glycan array binding signal (z-score),[25],3.2
same,glycan array binding signal (z-score),[26],2.62
same,glycan array binding signal (z-score),[27],3.37
same,glycan array binding signal (z-score),[28],3.65
same,glycan array binding signal (z-score),[29],0.627
same,glycan array binding signal (z-score),[30],2.47
same,glycan array binding signal (z-score),[31],-0.183
same,glycan array binding signal (z-score),[32],1.78

# — the supplement of paper PMC8728848
